# From the supplement of paper PMC8728848
# Some of the results follow.
# B1: Factor H (Homo sapiens), P08603 (protein)
# chain: MRLLAKIICLMLWAICVAEDCNELPPRRNTEILTGSWSDQTYPEGTQAIYKCRPGYRSLGNVIMVCRKGEWVALNPLRKCQKRPCGHPGDTPFGTFTLTGGNVFEYGVKAVYTCNEGYQLLGEINYRECDTDGWTNDIPICEVVKCLPVTAPENGKIVSSAMEPDREYHFGQAVRFVCNSGYKIEGDEEMHCSDDGFWSKEKPKCVEISCKSPDVINGSPISQKIIYKENERFQYKCNMGYEYSERGDAVCTESGWRPLPSCEEKSCDNPYIPNGDYSPLRIKHRTGDEITYQCRNGFYPATRGNTAKCTSTGWIPAPRCTLKPCDYPDIKHGGLYHENMRRPYFPVAVGKYYSYYCDEHFETPSGSYWDHIHCTQDGWSPAVPCLRKCYFPYLENGYNQNYGRKFVQGKSIDVACHPGYALPKAQTTVTCMENGWSPTPRCIRVKTCSKSSIDIENGFISESQYTYALKEKAKYQCKLGYVTADGETSGSITCGKDGWSAQPTCIKSCDIPVFMNARTKNDFTWFKLNDTLDYECHDGYESNTGSTTGSIVCGYNGWSDLPICYERECELPKIDVHLVPDRKKDQYKVGEVLKFSCKPGFTIVGPNSVQCYHFGLSPDLPICKEQVQSCGPPPELLNGNVKEKTKEEYGHSEVVEYYCNPRFLMKGPNKIQCVDGEWTTLPVCIVEESTCGDIPELEHGWAQLSSPPYYYGDSVEFNCSESFTMIGHRSITCIHGVWTQLPQCVAIDKLKKCKSSNLIILEEHLKNKKEFDHNSNIRYRCRGKEGWIHTVCINGRWDPEVNCSMAQIQLCPPPPQIPNSHNMTTTLNYRDGEKVSVLCQENYLIQEGEEITCKDGRWQSIPLCVEKIPCSQPPQIEHGTINSSRSSQESYAHGTKLSYTCEGGFRISEENETTCYMGKWSSPPQCEGLPCKSPPEISHGVVAHMSDSYQYGEEVTYKCFEGFGIDGPAIAKCLGEKWSHPPSCIKTDCLSLPSFENAIPMGEKKDVYKAGEQVTYTCATYYKMDGASNVTCINSRWTGRPTCRDTSCVNPPTVQNAYIVSRQMSKYPSGERVRYQCRSPYEMFGDEEVMCLNGNWTEPPQCKDSTGKCGPPPPIDNGDITSFPLSVYAPASSVEYQCQNLYQLEGNKRITCRNGQWSEPPKCLHPCVISREIMENYNIALRWTAKQKLYSRTGESVEFVCKRGYRLSSRSHTLRTTCWDGKLEYPTCAKR
# Key:
# Assay in all cases: glycan array binding signal (z-score within array); higher = stronger binding
# Details in all cases: glycan notation: IUPAC condensed, linker removed
# [1] = molecular target: Gal(b1-4)GlcNAc(b1-3)Gal(b1-4)GlcNAc(b1-3)Gal(b1-4)GlcNAc
# Summary of the method: (§1)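 The binding signal is a Z-score computed within each array and averaged over linkers. Arrays of the same protein sequence at different concentrations or buffers were also averaged together. Data originate from 3228 arrays in the Consortium for Functional Glycomics database, kept only where the protein sequence was available.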
# [2] = molecular target: Gal(b1-4)GlcNAc(b1-3)Gal(b1-4)[Fuc(a1-3)]GlcNAc(b1-3)Gal(b1-4)[Fuc(a1-3)]GlcNAc
# Summary of the method: as §1
# [3] = molecular target: Gal(b1-4)GlcNAc(b1-3)GalNAc
# Summary of the method: as §1
# [4] = molecular target: Gal(b1-4)GlcNAc(b1-3)[Gal(b1-4)GlcNAc(b1-6)]Gal(b1-4)GlcNAc
# Summary of the method: as §1
# [5] = molecular target: Gal(b1-4)GlcNAc(b1-3)[GlcNAc(b1-6)]Gal(b1-4)GlcNAc
# Summary of the method: as §1
# [6] = molecular target: Gal(b1-4)GlcNAc(b1-6)Gal(b1-4)GlcNAc
# Summary of the method: as §1
# [7] = molecular target: Gal(b1-4)GlcNAc(b1-6)Gal(b1-4)GlcNAc(b1-6)GalNAc
# Summary of the method: as §1
# [8] = molecular target: Gal(b1-4)GlcNAc(b1-6)GalNAc
# Summary of the method: as §1
# [9] = molecular target: Gal(b1-4)GlcNAc(b1-6)[Gal(b1-3)]GalNAc
# Summary of the method: as §1
# Gal3S(b1-3)GalNAc = molecular target: Gal3S(b1-3)GalNAc
# Summary of the method: as §1
# Gal3S(b1-3)GlcNAc = molecular target: Gal3S(b1-3)GlcNAc
# Summary of the method: as §1
# [10] = molecular target: Gal3S(b1-3)[Fuc(a1-4)]GlcNAc
# Summary of the method: as §1
# Gal3S(b1-4)Glc = molecular target: Gal3S(b1-4)Glc
# Summary of the method: as §1
# Gal3S(b1-4)Glc6S = molecular target: Gal3S(b1-4)Glc6S
# Summary of the method: as §1
# Gal3S(b1-4)GlcNAc = molecular target: Gal3S(b1-4)GlcNAc
# Summary of the method: as §1
# Gal3S(b1-4)GlcNAc6S = molecular target: Gal3S(b1-4)GlcNAc6S
# Summary of the method: as §1
# [11] = molecular target: Gal3S(b1-4)[Fuc(a1-3)]Glc
# Summary of the method: as §1
# Gal3S4S(b1-4)GlcNAc = molecular target: Gal3S4S(b1-4)GlcNAc
# Summary of the method: as §1
# Gal3S6S(b1-4)GlcNAc = molecular target: Gal3S6S(b1-4)GlcNAc
# Summary of the method: as §1
# Gal3S6S(b1-4)GlcNAc6S = molecular target: Gal3S6S(b1-4)GlcNAc6S
# Summary of the method: as §1
# Gal4S(b1-4)GlcNAc = molecular target: Gal4S(b1-4)GlcNAc
# Summary of the method: as §1
# Gal4S6S(b1-4)GlcNAc = molecular target: Gal4S6S(b1-4)GlcNAc
# Summary of the method: as §1
# Gal6S(b1-4)Glc = molecular target: Gal6S(b1-4)Glc
# Summary of the method: as §1
# Gal6S(b1-4)Glc6S = molecular target: Gal6S(b1-4)Glc6S
# Summary of the method: as §1
# Gal6S(b1-4)GlcNAc = molecular target: Gal6S(b1-4)GlcNAc
# Summary of the method: as §1
# Gal6S(b1-4)GlcNAc6S = molecular target: Gal6S(b1-4)GlcNAc6S
# Summary of the method: as §1
# GalNAc(a1-3)Gal = molecular target: GalNAc(a1-3)Gal
# Summary of the method: as §1
# GalNAc(a1-3)GalNAc = molecular target: GalNAc(a1-3)GalNAc
# Summary of the method: as §1
# GalNAc(b1-3)Gal = molecular target: GalNAc(b1-3)Gal
# Summary of the method: as §1
# [12] = molecular target: GalNAc(b1-3)Gal(a1-4)Gal(b1-4)GlcNAc
# Summary of the method: as §1
binder,measurement,setting,value
B1,glycan array binding signal (z-score),[1],-0.576
same,glycan array binding signal (z-score),[2],-0.383
same,glycan array binding signal (z-score),[3],-0.538
same,glycan array binding signal (z-score),[4],-0.173
same,glycan array binding signal (z-score),[5],-0.625
same,glycan array binding signal (z-score),[6],-0.316
same,glycan array binding signal (z-score),[7],-0.599
same,glycan array binding signal (z-score),[8],-0.336
same,glycan array binding signal (z-score),[9],-0.537
same,glycan array binding signal (z-score),Gal3S(b1-3)GalNAc,0.19
same,glycan array binding signal (z-score),Gal3S(b1-3)GlcNAc,1.36
same,glycan array binding signal (z-score),[10],0.776
same,glycan array binding signal (z-score),Gal3S(b1-4)Glc,1.64
same,glycan array binding signal (z-score),Gal3S(b1-4)Glc6S,0.397
same,glycan array binding signal (z-score),Gal3S(b1-4)GlcNAc,0.133
same,glycan array binding signal (z-score),Gal3S(b1-4)GlcNAc6S,0.079
same,glycan array binding signal (z-score),[11],-0.131
same,glycan array binding signal (z-score),Gal3S4S(b1-4)GlcNAc,-0.168
same,glycan array binding signal (z-score),Gal3S6S(b1-4)GlcNAc,-0.417
same,glycan array binding signal (z-score),Gal3S6S(b1-4)GlcNAc6S,11.8
same,glycan array binding signal (z-score),Gal4S(b1-4)GlcNAc,-0.153
same,glycan array binding signal (z-score),Gal4S6S(b1-4)GlcNAc,-0.543
same,glycan array binding signal (z-score),Gal6S(b1-4)Glc,1.34
same,glycan array binding signal (z-score),Gal6S(b1-4)Glc6S,0.498
same,glycan array binding signal (z-score),Gal6S(b1-4)GlcNAc,0.563
same,glycan array binding signal (z-score),Gal6S(b1-4)GlcNAc6S,-0.135
same,glycan array binding signal (z-score),GalNAc(a1-3)Gal,-0.188
same,glycan array binding signal (z-score),GalNAc(a1-3)GalNAc,-0.2
same,glycan array binding signal (z-score),GalNAc(b1-3)Gal,-0.083
same,glycan array binding signal (z-score),[12],0.024
